The results in this text go back to patent publication US20250346678A1 (published 2025).

Sequences and labels used below:
T1: human OX40 (human, UniProt P43489 29-214)
T1 chain: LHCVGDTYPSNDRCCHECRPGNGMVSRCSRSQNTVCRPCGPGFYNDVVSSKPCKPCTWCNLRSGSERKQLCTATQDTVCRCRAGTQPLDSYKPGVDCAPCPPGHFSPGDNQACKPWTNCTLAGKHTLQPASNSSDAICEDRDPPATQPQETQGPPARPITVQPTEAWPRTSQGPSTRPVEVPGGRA

B1: Anti-PD-L1-OX40 Ab-V8 (bispecific antibody)
heavy: QVQLVQSGAEVKKPGSSVKVSCKASGGTFRRYSISWVRQAPGQGLEWMGGIIPVFGAAKYAQKFQGRVTITADEFTSTAYMELSSLTSEDTAVYYCALSGDSDAFDIWGQGTMVTVSSASTKGPSVFPLAPCSRSTSESTAALGCLVKDYFPEPVTVSWNSGALTSGVHTFPAVLQSSGLYSLSSVVTVPSSSLGTKTYTCNVDHKPSNTKVDKRV[letters of human IgG4 Fc with S228P (EU numbers) not shown]GGGGSGGGGSYVLTQPPSVSVAPGKTARITCGGNNLESKIVSWYQQKPGQAPVLVIFYDTDRPSGIPERFSGSNSGNTATLTISRVEAGDEADYYCQVWDSNSDHVIFGGGTKLTVLGSTSGSGKPGSGEGSTKGEVQLVESGGIVVQPGGSLRLSCAASGFTFDDYTMHWVRQAPGKGLEWVSLISWDGGSTYYADSVKGRFTISRDNSKNSLYLQMNSLRTEDTALYYCASIYDPPPGSRSALDAFDIWGQGTMVTVSSA
light: QSVLTQPPSASGTPGQRVTISCSGSSSNIGSNTVNWYQQLPGTAPKLLIYSNNQRPSGVPDRFSGSKSGTSASLAISGLQSEDEADYYCATWDDSLNAWVVFGGGTKLTVLGQPKAAPSVTLFPPSSEELQANKATLVCLISDFYPGAVTVAWKADSSPVKAGVETTTPSKQSNNKYAASSYLSLTPEQWKSHRSYSCQVTHEGSTVEKTVAPTECS
B2: Anti-PD-L1-OX40 Ab-V10 (bispecific antibody)
heavy: QVQLVQSGAEVKKPGSSVKVSCKASGGTFRRYSISWVRQAPGQGLEWMGGIIPVFGAAKYAQKFQGRVTITADEFTSTAYMELSSLTSEDTAVYYCALSGDSDAFDIWGQGTMVTVSSASTKGPSVFPLAPCSRSTSESTAALGCLVKDYFPEPVTVSWNSGALTSGVHTFPAVLQSSGLYSLSSVVTVPSSSLGTKTYTCNVDHKPSNTKVDKRV[letters of human IgG4 Fc with S228P (EU numbers) not shown]GGGGSGGGGSYVLTQPPSVSVAPGQTARITCGGNNLESKIVSWYQQKPGQAPVLVIFYDTDRPSGIPERFSGSNSGNTATLTISRVEAGDEADYYCQVWDSNSDHVVFGGGTKLTVLGSTSGSGKPGSGEGSTKGEVQLVESGGGVVQPGGSLRLSCAASGFTFDDYTMHWVRQAPGKGLEWVSLISWDGGSTYYADSVKGRFTISRDNSKNSLYLQMNSLRTEDTALYYCASIYDPPPGSRSALDAFDIWGQGTMVTVSSA
light: B1 light
B3: Anti-PD-L1-OX40 Ab-V4 (antibody)
chain 1: QVQLVQSGAEVKKPGSSVKVSCKASGGTFRRYSISWVRQAPGQGLEWMGGIIPVFGAAKYAQKFQGRVTITADEFTSTAYMELSSLTSEDTAVYYCALSGDSDAFDIWGQGTMVTVSSASTKGPSVFPLAPCSRSTSESTAALGCLVKDYFPEPVTVSWNSGALTSGVHTFPAVLQSSGLYSLSSVVTVPSSSLGTKTYTCNVDHKPSNTKVDKRV[letters of human IgG4 Fc with S228P (EU numbers) not shown]GGGGSGGGGSYVLTQPPSVSVTPGKTARIACGGNNLESKIVSWYQQKPGQAPVLVIFYDTDRPSGISERFSGSNSGNTATLTISRVEAGDEADYYCQVWDSNSDHVIFGGGTKLTVLGSTSGSGKPGSGEGSTKGEVQLVESGGVVVQPGGSLRLSCAASGFTFDDYTMHWVRQAPGKGLEWVSLISWDGGSTYYADSVKGRFTISRDNSKNSLYLQMNSLRTEDTALYYCASIYDPPPGSRSALDAFDIWGQGTMVTVSSA
chain 2: B1 light
B4: Anti-PD-L1-OX40 Ab-V11 (bispecific antibody)
heavy: QVQLVQSGAEVKKPGSSVKVSCKASGGTFRRYSISWVRQAPGQGLEWMGGIIPVFGAAKYAQKFQGRVTITADEFTSTAYMELSSLTSEDTAVYYCALSGDSDAFDIWGQGTMVTVSSASTKGPSVFPLAPCSRSTSESTAALGCLVKDYFPEPVTVSWNSGALTSGVHTFPAVLQSSGLYSLSSVVTVPSSSLGTKTYTCNVDHKPSNTKVDKRV[letters of human IgG4 Fc with S228P (EU numbers) not shown]GGGGSGGGGSYVLTQPPSVSVTPGETARIACGGNNLESKIVSWYQQKPGQAPVLVIFYDTDRPSGISERFSGSNSGNTATLTISRVEAGDEADYYCQVWDSNSDHVIFGGGTKLTVLGSTSGSGKPGSGEGSTKGEVQLVESGGVVVQPGGSLRLSCAASGFTFDDYTMHWVRQAPGKGLEWVSLISWDGGSTYYADSVKGRFTISRDNSKNSLYLQMNSLRTEDTALYYCASIYDPPPGSRSALDAFDIWGQGTMVTVSSA
light: B1 light
B5: Anti-PD-L1-OX40 Ab-V5 (bispecific antibody)
heavy: QVQLVQSGAEVKKPGSSVKVSCKASGGTFRRYSISWVRQAPGQGLEWMGGIIPVFGAAKYAQKFQGRVTITADEFTSTAYMELSSLTSEDTAVYYCALSGDSDAFDIWGQGTMVTVSSASTKGPSVFPLAPCSRSTSESTAALGCLVKDYFPEPVTVSWNSGALTSGVHTFPAVLQSSGLYSLSSVVTVPSSSLGTKTYTCNVDHKPSNTKVDKRV[letters of human IgG4 Fc with S228P (EU numbers) not shown]GGGGSGGGGSYELTQPPSVSVTPGQTARIACGGNNLESKIVSWYQQKPGQAPVLVIFYDTDRPSGISERFSGSNSGNTATLTISRVEAGDEADYYCQVWDSNSDHVIFGGGTKLTVLGSTSGSGKPGSGEGSTKGEVQLVESGGVVVQPGGSLRLSCAASGFTFDDYTMHWVRQAPGKGLEWVSLISWDGGSTYYADSVKGRFTISRDNSKNSLYLQMNSLRTEDTALYYCASIYDPPPGSRSALDAFDIWGQGTMVTVSSA
light: B1 light

For one assay, the target named is human PD-L1 (human, UniProt Q9NZQ7 fragment). Briefly: ELISA. Background: An ELISA detects its analyte on a solid surface through an enzyme-linked reagent.
UniProt Q9NZQ7, sequence (Q9NZQ7 19-238): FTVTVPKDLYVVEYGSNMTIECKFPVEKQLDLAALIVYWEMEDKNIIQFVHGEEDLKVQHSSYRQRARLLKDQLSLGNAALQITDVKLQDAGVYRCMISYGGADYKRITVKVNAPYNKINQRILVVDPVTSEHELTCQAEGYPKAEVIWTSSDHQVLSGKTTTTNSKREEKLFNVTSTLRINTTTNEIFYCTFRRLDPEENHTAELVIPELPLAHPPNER
Usually EC50 stands for the concentration at which the effect is half-maximal. High values mean a less potent agent, low ones a more potent agent. On to B1, for which the EC50 worked out at 0.152 nM.
The same measure, in the same setting: the result for B2 reads 0.14 nM; that for B3, 0.144 nM.
On the same count and under the same terms, the same measure for B4: 0.168 nM; for B5: 0.156 nM.

The target in another assay is T1, human OX40. Briefly: ELISA.
In turn, B1 had an EC50 of 0.128 nM.
Same read-out and setting: the result for B2 reads 0.235 nM.
The same measure, in the same setting: the result for B3 reads 0.128 nM; that for B4, 0.134 nM.
Still for that read-out and setting: the result for B5 reads 0.125 nM.
